# Reference: the supplement of paper PMC8728848
# The other results are listed elsewhere or left out.
# B1: Gal 3 (Homo sapiens), P17931 (protein)
# chain: MADNFSLHDALSGSGNPNPQGWPGAWGNQPAGAGGYPGASYPGAYPGQAPPGAYPGQAPPGAYHGAPGAYPGAPAPGVYPGPPSGPGAYPSSGQPSAPGAYPATGPYGAPAGPLIVPYNLPLPGGVVPRMLITILGTVKPNANILDFQRGNDVAFHFNPRFNENNRRVIVCNTKLDNNWGREEIQSVFPFESGKPFKIQVLVEPDHFKVAVNDAHLLQYNHRVKKLNEISKLGISGDIDLTSASYTMI
# Key:
# Test in all cases: glycan array binding signal (z-score within array); higher = stronger binding
# Conditions in all cases: glycan notation: IUPAC condensed, linker removed; mutation: R186I
# Fuc(a1-2)Gal = biological target: Fuc(a1-2)Gal
# Procedure, shortened: (§1)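 Columns mapping to the same glycan were averaged after glycan names were converted to IUPAC-condensed notation. The data come from 3228 arrays in the Consortium for Functional Glycomics database, limited to those with an available protein sequence. Binding is reported as a within-array Z-score averaged across arrays of one protein sequence and across linkers.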
# Fuc(a1-2)Gal(b1-3)GalNAc = biological target: Fuc(a1-2)Gal(b1-3)GalNAc
# Procedure, shortened: as §1
# [1] = biological target: Fuc(a1-2)Gal(b1-3)GalNAc(a1-3)[Fuc(a1-2)]Gal(b1-4)Glc
# Procedure, shortened: as §1
# [2] = biological target: Fuc(a1-2)Gal(b1-3)GalNAc(a1-3)[Fuc(a1-2)]Gal(b1-4)GlcNAc
# Procedure, shortened: as §1
# [3] = biological target: Fuc(a1-2)Gal(b1-3)GalNAc(b1-3)Gal
# Procedure, shortened: as §1
# [4] = biological target: Fuc(a1-2)Gal(b1-3)GalNAc(b1-3)Gal(a1-4)Gal(b1-4)Glc
# Procedure, shortened: as §1
# [5] = biological target: Fuc(a1-2)Gal(b1-3)GalNAc(b1-4)[Neu5Ac(a2-3)]Gal(b1-4)Glc
# Procedure, shortened: as §1
# Fuc(a1-2)Gal(b1-3)GlcNAc = biological target: Fuc(a1-2)Gal(b1-3)GlcNAc
# Procedure, shortened: as §1
# [6] = biological target: Fuc(a1-2)Gal(b1-3)GlcNAc(b1-2)Man(a1-3)[Fuc(a1-2)Gal(b1-3)GlcNAc(b1-2)Man(a1-6)]Man(b1-4)GlcNAc(b1-4)GlcNAc
# Procedure, shortened: as §1
# [7] = biological target: Fuc(a1-2)Gal(b1-3)GlcNAc(b1-3)Gal(b1-4)Glc
# Procedure, shortened: as §1
# [8] = biological target: Fuc(a1-2)Gal(b1-3)GlcNAc(b1-3)[Fuc(a1-3)[Gal(b1-4)]GlcNAc(b1-6)]Gal(b1-4)Glc
# Procedure, shortened: as §1
# [9] = biological target: Fuc(a1-2)Gal(b1-3)[Fuc(a1-4)]GlcNAc
# Procedure, shortened: as §1
# [10] = biological target: Fuc(a1-2)Gal(b1-3)[Fuc(a1-4)]GlcNAc(b1-2)Man(a1-3)[Fuc(a1-2)Gal(b1-3)[Fuc(a1-4)]GlcNAc(b1-2)Man(a1-6)]Man(b1-4)GlcNAc(b1-4)GlcNAc
# Procedure, shortened: as §1
# [11] = biological target: Fuc(a1-2)Gal(b1-3)[Fuc(a1-4)]GlcNAc(b1-3)[Fuc(a1-3)[Gal(b1-4)]GlcNAc(b1-6)]Gal(b1-4)Glc
# Procedure, shortened: as §1
# [12] = biological target: Fuc(a1-2)Gal(b1-3)[Fuc(a1-4)]GlcNAc(b1-3)[Gal(b1-4)GlcNAc(b1-6)]Gal(b1-4)Glc
# Procedure, shortened: as §1
# Fuc(a1-2)Gal(b1-4)Glc = biological target: Fuc(a1-2)Gal(b1-4)Glc
# Procedure, shortened: as §1
# Fuc(a1-2)Gal(b1-4)Glc6S = biological target: Fuc(a1-2)Gal(b1-4)Glc6S
# Procedure, shortened: as §1
# Fuc(a1-2)Gal(b1-4)GlcNAc = biological target: Fuc(a1-2)Gal(b1-4)GlcNAc
# Procedure, shortened: as §1
# [13] = biological target: Fuc(a1-2)Gal(b1-4)GlcNAc(b1-2)Man(a1-3)[Fuc(a1-2)Gal(b1-4)GlcNAc(b1-2)Man(a1-6)]Man(b1-4)GlcNAc(b1-4)GlcNAc
# Procedure, shortened: as §1
# [14] = biological target: Fuc(a1-2)Gal(b1-4)GlcNAc(b1-3)Gal(b1-4)GlcNAc
# Procedure, shortened: as §1
# [15] = biological target: Fuc(a1-2)Gal(b1-4)GlcNAc(b1-3)Gal(b1-4)GlcNAc(b1-3)Gal(b1-4)GlcNAc
# Procedure, shortened: as §1
# [16] = biological target: Fuc(a1-2)Gal(b1-4)GlcNAc(b1-3)GalNAc
# Procedure, shortened: as §1
# [17] = biological target: Fuc(a1-2)Gal(b1-4)GlcNAc6S
# Procedure, shortened: as §1
# [18] = biological target: Fuc(a1-2)Gal(b1-4)[Fuc(a1-3)]GlcNAc
# Procedure, shortened: as §1
# [19] = biological target: Fuc(a1-2)Gal(b1-4)[Fuc(a1-3)]GlcNAc(b1-2)Man(a1-3)[Fuc(a1-2)Gal(b1-4)[Fuc(a1-3)]GlcNAc(b1-2)Man(a1-6)]Man(b1-4)GlcNAc(b1-4)GlcNAc
# Procedure, shortened: as §1
# [20] = biological target: Fuc(a1-2)Gal(b1-4)[Fuc(a1-3)]GlcNAc(b1-3)Gal(b1-4)[Fuc(a1-3)]GlcNAc
# Procedure, shortened: as §1
# [21] = biological target: Fuc(a1-2)Gal(b1-4)[Fuc(a1-3)]GlcNAc(b1-3)Gal(b1-4)[Fuc(a1-3)]GlcNAc(b1-3)Gal(b1-4)[Fuc(a1-3)]GlcNAc
# Procedure, shortened: as §1
# Fuc(a1-2)Gal6S(b1-4)Glc = biological target: Fuc(a1-2)Gal6S(b1-4)Glc
# Procedure, shortened: as §1
# [22] = biological target: Fuc(a1-2)Gal6S(b1-4)Glc6S
# Procedure, shortened: as §1
# [23] = biological target: Fuc(a1-2)Gal6S(b1-4)GlcNAc
# Procedure, shortened: as §1
# Fuc(a1-2)[Gal(a1-3)]Gal = biological target: Fuc(a1-2)[Gal(a1-3)]Gal
# Procedure, shortened: as §1
# [24] = biological target: Fuc(a1-2)[Gal(a1-3)]Gal(b1-3)GlcNAc
# Procedure, shortened: as §1
# [25] = biological target: Fuc(a1-2)[Gal(a1-3)]Gal(b1-3)GlcNAc(b1-2)Man(a1-3)[Fuc(a1-2)[Gal(a1-3)]Gal(b1-3)GlcNAc(b1-2)Man(a1-6)]Man(b1-4)GlcNAc(b1-4)GlcNAc
# Procedure, shortened: as §1
# [26] = biological target: Fuc(a1-2)[Gal(a1-3)]Gal(b1-4)Glc
# Procedure, shortened: as §1
# [27] = biological target: Fuc(a1-2)[Gal(a1-3)]Gal(b1-4)GlcNAc
# Procedure, shortened: as §1
# [28] = biological target: Fuc(a1-2)[Gal(a1-3)]Gal(b1-4)GlcNAc(b1-2)Man(a1-3)[Fuc(a1-2)[Gal(a1-3)]Gal(b1-4)GlcNAc(b1-2)Man(a1-6)]Man(b1-4)GlcNAc(b1-4)GlcNAc
# Procedure, shortened: as §1
# [29] = biological target: Fuc(a1-2)[Gal(a1-3)]Gal(b1-4)[Fuc(a1-3)]GlcNAc
# Procedure, shortened: as §1
# [30] = biological target: Fuc(a1-2)[Gal(a1-4)]Gal(b1-4)GlcNAc
# Procedure, shortened: as §1
# [31] = biological target: Fuc(a1-2)[GalNAc(a1-3)]Gal
# Procedure, shortened: as §1
# [32] = biological target: Fuc(a1-2)[GalNAc(a1-3)]Gal(b1-3)GalNAc(a1-3)[Fuc(a1-2)]Gal(b1-4)GlcNAc
# Procedure, shortened: as §1
# [33] = biological target: Fuc(a1-2)[GalNAc(a1-3)]Gal(b1-3)GlcNAc
# Procedure, shortened: as §1
# [34] = biological target: Fuc(a1-2)[GalNAc(a1-3)]Gal(b1-3)GlcNAc(b1-2)Man(a1-3)[Fuc(a1-2)[GalNAc(a1-3)]Gal(b1-3)GlcNAc(b1-2)Man(a1-6)]Man(b1-4)GlcNAc(b1-4)GlcNAc
# Procedure, shortened: as §1
# [35] = biological target: Fuc(a1-2)[GalNAc(a1-3)]Gal(b1-4)Glc
# Procedure, shortened: as §1
# [36] = biological target: Fuc(a1-2)[GalNAc(a1-3)]Gal(b1-4)GlcNAc
# Procedure, shortened: as §1
# [37] = biological target: Fuc(a1-2)[GalNAc(a1-3)]Gal(b1-4)GlcNAc(b1-2)Man(a1-3)[Fuc(a1-2)[GalNAc(a1-3)]Gal(b1-4)GlcNAc(b1-2)Man(a1-6)]Man(b1-4)GlcNAc(b1-4)GlcNAc
# Procedure, shortened: as §1
binder,measurement,setting,value
B1,glycan array binding signal (z-score),Fuc(a1-2)Gal,-0.161
same,glycan array binding signal (z-score),Fuc(a1-2)Gal(b1-3)GalNAc,-0.183
same,glycan array binding signal (z-score),[1],-0.168
same,glycan array binding signal (z-score),[2],-0.176
same,glycan array binding signal (z-score),[3],-0.188
same,glycan array binding signal (z-score),[4],-0.055
same,glycan array binding signal (z-score),[5],-0.187
same,glycan array binding signal (z-score),Fuc(a1-2)Gal(b1-3)GlcNAc,-0.17
same,glycan array binding signal (z-score),[6],-0.18
same,glycan array binding signal (z-score),[7],0.493
same,glycan array binding signal (z-score),[8],-0.187
same,glycan array binding signal (z-score),[9],-0.187
same,glycan array binding signal (z-score),[10],-0.033
same,glycan array binding signal (z-score),[11],-0.123
same,glycan array binding signal (z-score),[12],-0.194
same,glycan array binding signal (z-score),Fuc(a1-2)Gal(b1-4)Glc,0.019
same,glycan array binding signal (z-score),Fuc(a1-2)Gal(b1-4)Glc6S,-0.173
same,glycan array binding signal (z-score),Fuc(a1-2)Gal(b1-4)GlcNAc,-0.174
same,glycan array binding signal (z-score),[13],2.01
same,glycan array binding signal (z-score),[14],-0.118
same,glycan array binding signal (z-score),[15],-0.171
same,glycan array binding signal (z-score),[16],-0.081
same,glycan array binding signal (z-score),[17],-0.174
same,glycan array binding signal (z-score),[18],-0.13
same,glycan array binding signal (z-score),[19],-0.181
same,glycan array binding signal (z-score),[20],-0.145
same,glycan array binding signal (z-score),[21],-0.191
same,glycan array binding signal (z-score),Fuc(a1-2)Gal6S(b1-4)Glc,-0.189
same,glycan array binding signal (z-score),[22],-0.195
same,glycan array binding signal (z-score),[23],-0.189
same,glycan array binding signal (z-score),Fuc(a1-2)[Gal(a1-3)]Gal,-0.148
same,glycan array binding signal (z-score),[24],1.19
same,glycan array binding signal (z-score),[25],5.08
same,glycan array binding signal (z-score),[26],0.759
same,glycan array binding signal (z-score),[27],-0.174
same,glycan array binding signal (z-score),[28],10.8
same,glycan array binding signal (z-score),[29],-0.184
same,glycan array binding signal (z-score),[30],-0.099
same,glycan array binding signal (z-score),[31],-0.161
same,glycan array binding signal (z-score),[32],0.052
same,glycan array binding signal (z-score),[33],-0.189
same,glycan array binding signal (z-score),[34],3.39
same,glycan array binding signal (z-score),[35],1.4
same,glycan array binding signal (z-score),[36],-0.004
same,glycan array binding signal (z-score),[37],8.83
